Viability of KB3-1 and Nalm-6 cells after 48 h of drug alone (CellTiter-Glo), 11 doses over about 4.5 log units. % of DMSO wells, lower = more cell loss; AC50 from the fitted curve, lower = more potent. No active / inactive call. Nalm-6 was screened in two runs. AC50 is listed only for well-fitted inhibitory curves. KB3-1 is a HeLa-derived carcinoma line, Nalm-6 a B-cell precursor leukaemia line.
Assays:
KB3-1 [1] = assay: viability (% of DMSO control); higher = more viable cells
Method: (§1)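 Eleven-dose screen of the NCATS MIPE 3 library on cells without co-treatment; CellTiter-Glo after 48 h, as % of DMSO wells.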

Nalm-6 [2] = assay: as above
Method: as §1

KB3-1 [3] = assay: log AC50 of viability decrease (48 h) (log10 M); higher = less potent
Method: (§2)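 Eleven-dose screen of the NCATS MIPE 3 library on cells without co-treatment; CellTiter-Glo after 48 h. AC50 from the curve fit; only inhibitory curves of the better fit classes are listed.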

Nalm-6 [4] = assay: as above
Method: as §2

Row | Compound | viability (KB3-1 [1]; 0.00078 µM) [%] | viability (KB3-1 [1]; 0.00234 µM) [%] | viability (KB3-1 [1]; 0.00702 µM) [%] | viability (KB3-1 [1]; 0.0211 µM) [%] | viability (KB3-1 [1]; 0.0632 µM) [%] | viability (KB3-1 [1]; 0.19 µM) [%] | viability (KB3-1 [1]; 0.569 µM) [%] | viability (KB3-1 [1]; 1.71 µM) [%] | viability (KB3-1 [1]; 5.12 µM) [%] | viability (KB3-1 [1]; 15.4 µM) [%] | viability (KB3-1 [1]; 46.1 µM) [%] | viability (Nalm-6 [2]; run: 1, 0.00078 µM) [%] | viability (Nalm-6 [2]; run: 1, 0.00234 µM) [%] | viability (Nalm-6 [2]; run: 1, 0.00702 µM) [%] | viability (Nalm-6 [2]; run: 1, 0.0211 µM) [%] | viability (Nalm-6 [2]; run: 1, 0.0632 µM) [%] | viability (Nalm-6 [2]; run: 1, 0.19 µM) [%] | viability (Nalm-6 [2]; run: 1, 0.569 µM) [%] | viability (Nalm-6 [2]; run: 1, 1.71 µM) [%] | viability (Nalm-6 [2]; run: 1, 5.12 µM) [%] | viability (Nalm-6 [2]; run: 1, 15.4 µM) [%] | viability (Nalm-6 [2]; run: 1, 46.1 µM) [%] | viability (Nalm-6 [2]; run: 2, 0.00078 µM) [%] | viability (Nalm-6 [2]; run: 2, 0.00234 µM) [%] | viability (Nalm-6 [2]; run: 2, 0.00702 µM) [%] | viability (Nalm-6 [2]; run: 2, 0.0211 µM) [%] | viability (Nalm-6 [2]; run: 2, 0.0632 µM) [%] | viability (Nalm-6 [2]; run: 2, 0.19 µM) [%] | viability (Nalm-6 [2]; run: 2, 0.569 µM) [%] | viability (Nalm-6 [2]; run: 2, 1.71 µM) [%] | viability (Nalm-6 [2]; run: 2, 5.12 µM) [%] | viability (Nalm-6 [2]; run: 2, 15.4 µM) [%] | viability (Nalm-6 [2]; run: 2, 46.1 µM) [%] | log AC50 of viability decrease (KB3-1 [3]) | log AC50 of viability decrease (Nalm-6 [4]; run: 1) | log AC50 of viability decrease (Nalm-6 [4]; run: 2)
1 | Cc1cc(-c2ccc(CC(=O)Nc3ccc(-c4cccnc4)cc3)cc2)ccn1 [Wnt-C59] | 102 | 97.2 | 99.6 | 101 | 94.8 | 93.9 | 101 | 96.3 | 89.9 | 81.1 | 63.8 | 116 | 117 | 114 | 106 | 111 | 112 | 116 | 110 | 102 | 77.3 | 31.9 | 116 | 114 | 109 | 116 | 116 | 109 | 117 | 111 | 102 | 88.2 | 41 | -4.73 | -4.78 | -4.73
2 | Cc1ccnc(NS(=O)(=O)c2ccc(NC(=O)Nc3ccc(S(=O)(=O)Nc4nccc(C)n4)cc3)cc2)n1 | 105 | 108 | 105 | 103 | 102 | 101 | 102 | 100 | 90.3 | 89.9 | 65.8 | 112 | 111 | 104 | 114 | 101 | 111 | 108 | 98.9 | 105 | 72 | 36.2 | 106 | 107 | 106 | 106 | 102 | 101 | 104 | 101 | 111 | 76.3 | 34.9 | -4.73 | -4.78 | -4.78

From the supplement of paper PMC4996465
